The text below walks through data of PMC4336329 (PLoS ONE, 2015).

The campaign covered roughly 310,000 compounds. About 2,200 (0.71%) showed an effect of 50% or more. Effects have a minus sign here. The list shows a part of the results.

The target of this test is human ether-à-go-go-related gene (hERG) potassium channel (human, UniProt Q12809). As to the kind of experiment: primary screen, population patch clamp on CHO cells stably expressing hERG.
Sequence of human ether-à-go-go-related gene (hERG) potassium channel (Q12809 whole entry, looked up): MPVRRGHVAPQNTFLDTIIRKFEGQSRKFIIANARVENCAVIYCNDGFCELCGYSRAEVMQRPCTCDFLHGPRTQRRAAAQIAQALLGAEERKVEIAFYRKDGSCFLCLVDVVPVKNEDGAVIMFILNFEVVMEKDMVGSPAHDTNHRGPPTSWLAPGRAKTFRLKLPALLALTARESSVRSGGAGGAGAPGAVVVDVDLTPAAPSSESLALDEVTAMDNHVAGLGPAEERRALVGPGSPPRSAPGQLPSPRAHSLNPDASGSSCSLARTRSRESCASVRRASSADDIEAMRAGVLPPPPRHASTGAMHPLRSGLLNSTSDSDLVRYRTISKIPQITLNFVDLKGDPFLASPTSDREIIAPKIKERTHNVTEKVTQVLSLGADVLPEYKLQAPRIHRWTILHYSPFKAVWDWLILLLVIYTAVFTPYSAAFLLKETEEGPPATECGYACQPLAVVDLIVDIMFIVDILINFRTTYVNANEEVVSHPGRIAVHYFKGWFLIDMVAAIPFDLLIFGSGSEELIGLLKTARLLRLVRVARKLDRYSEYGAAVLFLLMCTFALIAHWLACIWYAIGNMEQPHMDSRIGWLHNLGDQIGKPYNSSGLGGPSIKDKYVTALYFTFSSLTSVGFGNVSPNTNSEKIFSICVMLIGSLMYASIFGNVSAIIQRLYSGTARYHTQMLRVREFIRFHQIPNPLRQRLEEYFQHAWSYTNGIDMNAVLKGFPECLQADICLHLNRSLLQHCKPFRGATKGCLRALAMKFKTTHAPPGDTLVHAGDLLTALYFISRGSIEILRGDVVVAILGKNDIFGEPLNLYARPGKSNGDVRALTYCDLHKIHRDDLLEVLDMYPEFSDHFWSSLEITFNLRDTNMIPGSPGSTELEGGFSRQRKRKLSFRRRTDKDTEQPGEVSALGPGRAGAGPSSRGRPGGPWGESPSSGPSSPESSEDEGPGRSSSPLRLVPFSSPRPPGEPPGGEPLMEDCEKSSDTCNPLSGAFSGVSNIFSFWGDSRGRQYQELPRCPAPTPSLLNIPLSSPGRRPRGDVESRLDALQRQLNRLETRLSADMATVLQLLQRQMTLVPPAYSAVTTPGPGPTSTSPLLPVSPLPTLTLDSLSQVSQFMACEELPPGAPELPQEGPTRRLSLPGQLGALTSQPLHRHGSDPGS
Consider `O=C(CN1CCOCC1)Nc1nc2ccc(F)cc2s1`, for which the “hERG current change (%, negative = inhibition) at 1uM” value is reported as 6.59%. The value for `O=C(CSc1ccc(Cl)cc1)Nc1cc(-c2nc3ncccc3o2)ccc1Cl` was 0.8%; that for `CC(C)(C)c1ccc(C(=O)NNC(=S)NCC2CCCO2)cc1` (centres unmarked) was 13.7%; that for `Cn1ncc(Cl)c1C(=O)Nc1nnc(C2CC2)s1` was 9.46%. As for `COC(=O)Cn1c(CN2CCOCC2)nc2c1c(=O)n(C)c(=O)n2C`, the figure is 12.2%; as for `CCOc1ccc(N2CC(=O)SC2=S)cc1`, 1.02%. The value for `O=C(/C=C/c1ccc(Cl)cc1)NCc1ccncc1` was 9.09%; that for `Cc1cc(O)c(C(C[N+](=O)[O-])c2ccc(Cl)cc2)c(=O)o1` (centres unmarked) was 3.67%. For the molecule `O=c1cc(-c2ccccc2)nc2nc(-c3ccccc3)[nH]n12`, the “hERG current change (%, negative = inhibition) at 1uM” value was found to be 15.4%. Take `CC(NCc1cc(Br)ccc1OCC(N)=O)C12CC3CC(CC(C3)C1)C2.Cl` (centres unmarked): the “hERG current change (%, negative = inhibition) at 1uM” value stood at 0.529%.

In the case of `CN(CC(=O)Nc1ccc(F)c(F)c1F)C(=O)CC1CCCCC1`, the “hERG current change (%, negative = inhibition) at 1uM” value was found to be 5.61%. As for `CCCCN(C(=O)c1ccc(N2CCCC2=O)cc1)c1c(N)n(CCCC)c(=O)[nH]c1=O`, the figure is 1.89%; as for `CCn1c(CNC(=O)c2ccccc2Br)nnc1SCC(=O)NC1=NCCS1`, 15.7%. In the case of `NNC(=O)C(=O)Nc1ccc(Cl)c(Cl)c1`, the “hERG current change (%, negative = inhibition) at 1uM” value is 10.8%. The value for `COc1ccc(N2CCN(C(=O)NC(=O)c3ccc(Cl)cc3)CC2)cc1` was 6.97%. As for `COc1ccc(C2C(C(C)=O)=C(O)C(=O)N2CCc2c[nH]c3ccccc23)cc1OC` (centres unmarked), the figure is 18.2%. Consider `COc1ccc(-c2csc3ncnc(N4CCN(c5cccc(C)c5C)CC4)c23)cc1`, for which the “hERG current change (%, negative = inhibition) at 1uM” value is on record as 13.6%.

Regarding `CC1(c2nnc(Cc3ccccc3)o2)CC(c2ccc(C#N)cc2)=NO1` (centres unmarked), the “hERG current change (%, negative = inhibition) at 1uM” value is -48.1%. As for `COc1ccc(NC(=O)C/C(C)=N/NC(=O)COc2ccc(OC)cc2)cc1`, the figure is 8.37%. As for `CC(C)OCCCNc1ncc2c(n1)CC(c1ccccc1)CC2=O` (centres unmarked), the figure is -4.95%.

On to `O=C(O)C1CC(=O)N(Cc2cccs2)C1` (centres unmarked), for which the “hERG current change (%, negative = inhibition) at 1uM” value is reported as 27%. As for `CCOc1cc(S(=O)(=O)N2CCN(CC)CC2)ccc1Cl`, the figure is 6.75%. Take `CN1/C(=C/C2CC(=O)N(c3ccc([N+](=O)[O-])cc3)C2=O)C(C)(C)c2ccccc21` (centres unmarked): the “hERG current change (%, negative = inhibition) at 1uM” value is -5.44%. The value for `CS(=O)(=O)N(CC(=O)N1CCCC1)c1ccc2c(c1)OCCO2` was -20.8%. The value for `CN(C)S(=O)(=O)c1ccc(C(=O)Nc2ccccc2OC(F)(F)C(F)F)cc1` was -16.3%; that for `O=C(CCNS(=O)(=O)c1ccccc1C(F)(F)F)NNC(=O)c1csc(N2CCOCC2)n1` was 0.442%. For the molecule `COc1ccc(-n2cnnc2SCC(=O)Nc2cccc(S(N)(=O)=O)c2)cc1`, the “hERG current change (%, negative = inhibition) at 1uM” value turned out to be 16.7%. As for `Cc1cc(OC(=O)C(C)(C)C)c([N+](=O)[O-])c(=O)[nH]1`, the figure is 14.3%; as for `COc1ccc(C(=O)NC2CCN(Cc3ccccc3)C2)cc1S(=O)(=O)N1CCOCC1` (centres unmarked), 7.5%.

For the molecule `O=C(NC1CCCCC1)C(c1ccccn1)N(C(=O)c1csnn1)C1CCCCC1` (centres unmarked), the “hERG current change (%, negative = inhibition) at 1uM” value came out at 13.4%. With `CCCC(=O)Nc1ccc(S(=O)(=O)N2CCOCC2)cc1`, the “hERG current change (%, negative = inhibition) at 1uM” value came to 9.69%. Take `Cc1ccc(OCc2nnc(SCCN3CCOCC3)n2C)cc1.O=C(O)C(=O)O`: the “hERG current change (%, negative = inhibition) at 1uM” value came out at 8.12%.

Consider `COc1cccc(C(=O)OCC(=O)c2c(N)n(C)c(=O)n(C)c2=O)c1`, for which the “hERG current change (%, negative = inhibition) at 1uM” value is recorded as 5.26%. As for `CC(=O)c1c(C)[nH]c(C(=O)N2CCN(c3ccccn3)CC2)c1C`, the figure is 11.1%. The value for `COc1ccccc1Cn1c(=S)[nH]c2cc(C(=O)NCCCN3CCOCC3)ccc2c1=O` was 9.52%; that for `O=C(Cc1ccccc1)N/N=C/c1ccc[nH]1` was 13.2%; that for `CCN(CC)S(=O)(=O)c1cccc(C(=O)NCC(c2ccccc2)N(C)C)c1` (centres unmarked) was -0.959%.

`CC(C(=O)NC1CCCC1)N(C(=O)Cn1nnc(-c2ccc(F)cc2)n1)c1ccccc1F` (centres unmarked): the “hERG current change (%, negative = inhibition) at 1uM” value is reported as 12.6%.

Regarding `CC(C)n1c(SCC(=O)c2ccc3c(c2)OCCO3)nc2c1c(=O)n(C)c(=O)n2C`, the “hERG current change (%, negative = inhibition) at 1uM” value came out at 8.41%.

`O=C(Nc1cc(S(=O)(=O)N2CCCC2)ccc1OCC(F)(F)F)c1ccccc1F`: the “hERG current change (%, negative = inhibition) at 1uM” value came out at 16.1%. As for `CC(C)(C)C(=O)CC(=O)Nc1ccc(Cl)c(N)c1`, the figure is 18.6%; as for `CCOc1ccc2nc3c(cc2c1)CN(CCOC)C(=NCCOC)S3`, -0.794%; as for `Clc1ccc(-c2nnc(CCc3ccccc3)o2)c(Cl)c1`, 3.41%. As for `CCOc1ccccc1/C=C/c1onc(C)c1S(=O)(=O)N1CCC(C(=O)NC)CC1`, the figure is 1.45%; as for `CC(C)CNC(=O)Cn1c(=O)c2c(ncn2CC(C)C)n(Cc2ccccc2)c1=O`, 12.3%. The value for `CC1CN(C(=O)CCC(=O)N2CCCCC2)c2ccccc2O1` (centres unmarked) was 11.1%; that for `CC(=O)c1cccc(-n2c(CCC(=O)O)ccc2-c2ccccc2)c1` was 15%; that for `COc1cccc(N2CCN(CC(=O)Nc3ccc(-n4cnnn4)cc3)CC2)c1` was 14.1%. Turning to `CN(C)CCNc1ncnc2sc(-c3ccccc3)cc12`, the “hERG current change (%, negative = inhibition) at 1uM” value is 9.8%. As to `CN(C)c1c(F)cc(C(=O)NC(=O)NCc2cccnc2)cc1F`, the “hERG current change (%, negative = inhibition) at 1uM” value came to 10.5%. As to `COc1ccc(C(=O)NC2CCN(CC(=O)N3CCCCC3)CC2)cc1`, the “hERG current change (%, negative = inhibition) at 1uM” value was found to be 15.6%.

For the molecule `COC(=O)C1=C(C)Nc2nnnn2C1c1ccc(Cl)cc1Cl` (centres unmarked), the “hERG current change (%, negative = inhibition) at 1uM” value is 3.29%.

For `Cc1cccc(NC(=O)c2cnn(-c3ccccc3)c2C)c1C`, the “hERG current change (%, negative = inhibition) at 1uM” value worked out at 10.2%. Turning to `CCCCCc1n[nH]c2c1CCCC2`, the “hERG current change (%, negative = inhibition) at 1uM” value was 9.3%. As to `CCc1ccc(-c2csc(NC(=O)COC(=O)CCc3nc4ccccc4s3)n2)cc1`, the “hERG current change (%, negative = inhibition) at 1uM” value came to 2.9%.

With `Cc1oc(-c2ccccc2Cl)nc1CSCC(=O)NC1CCCC1`, the “hERG current change (%, negative = inhibition) at 1uM” value is 0.667%. The value for `CCCCC/C=C/C1=CC(=O)C[C@H](c2ccc(Cl)cc2)C1` was -1.14%.

With `Cc1cc(C)c([N+](=O)[O-])cc1NC(=O)CCSc1ccccc1Cl`, the “hERG current change (%, negative = inhibition) at 1uM” value is 8.87%. The value for `CC(C)Cn1cnc2c1c(=O)n(CC(=O)N(C)C)c(=O)n2Cc1ccccc1` was 9.3%.

On to `c1ccc2c(Oc3ccc4c(c3)OCO4)nncc2c1`, for which the “hERG current change (%, negative = inhibition) at 1uM” value stood at 17.3%. For `CCCCc1c(C)[nH]c(C(=O)OCC)c1C`, the “hERG current change (%, negative = inhibition) at 1uM” value worked out at 7.36%. The value for `Cn1cc(CCCC(=O)NCc2ccc(F)cc2)c2ccccc21` was 13.3%; that for `Cc1onc(-c2ccccc2Cl)c1C(=O)N1CCN(c2ccccc2)CC1` was 1.1%; that for `Cc1cccc(-c2noc(CNS(=O)(=O)c3ccccc3)n2)c1` was 13.2%. As for `COc1cc(OC)cc(C(=O)NCCN2C(=O)S/C(=C\c3cccs3)C2=O)c1`, the figure is 26.4%.

For the molecule `Cc1nc(-c2cccc(NC(=O)c3ccc(Br)o3)c2)cs1`, the “hERG current change (%, negative = inhibition) at 1uM” value was 9.08%. The value for `CC1(NC(=O)Cn2cc(C(F)(F)F)ccc2=O)CCS(=O)(=O)C1` (centres unmarked) was 8.03%; that for `CC1CCCCN1Cc1cnc(Cl)s1` (centres unmarked) was 0.0979%. As for `CCn1nc(NC(=O)c2ccco2)c2cc3ccc(C)cc3nc21`, the figure is 3.29%; as for `CC(NS(=O)(=O)c1cccc(Cl)c1)C(=O)Nc1ccc(-c2nc3ccccc3s2)cc1` (centres unmarked), 2.34%. As for `Cc1ccc(SCC2CNc3nc4ccccc4c(=O)n32)c(C)c1` (centres unmarked), the figure is -11.8%; as for `COc1cc(NC(=O)C2CCCN2S(=O)(=O)c2cccc3cccnc23)cc(OC)c1OC` (centres unmarked), 18.3%; as for `O=C(NC(=O)N1CCCCCC1)c1ccccc1`, 6.46%. As to `NS(=O)(=O)c1ccc(NC(=O)c2c(F)cccc2Cl)cc1`, the “hERG current change (%, negative = inhibition) at 1uM” value was 13.4%. As for `CCN(CC)C(=O)c1[nH]cnc1C(=O)Nc1cccc(C)c1`, the figure is 16.9%. As for `CC(C)Cn1c(N)c(C(=O)CSc2cc(Cl)ccc2Cl)c(=O)n(C)c1=O`, the figure is 0.0188%; as for `CCCCn1c(N)c(N(CCOC)C(=O)c2cc(-c3ccc(OC)c(OC)c3)nc3ccccc23)c(=O)[nH]c1=O`, 3.55%; as for `CC(C)C[C@H](NC(=O)C1CCN(C(=O)[C@H](Cc2ccccc2)NC(=O)OC(C)(C)C)CC1)C(=O)O`, 15.7%.

With `Cc1ccc2oc(Nc3nc(C)cc(C)n3)nc2c1`, the “hERG current change (%, negative = inhibition) at 1uM” value stood at 3.79%. The value for `CCCCc1ccc(C2C(C#N)=C(N)SC(N)=C2C#N)s1` was 10.1%; that for `COC(=O)[C@H](Cc1ccccc1)NC(=O)NCc1cccs1` was 4.86%.

`COc1ccc(N2C(=O)C3CCCN3C2c2ccc(Cl)cc2)cc1` (centres unmarked): the “hERG current change (%, negative = inhibition) at 1uM” value was 5.83%.

With `CCc1ccc2c(c1)cc(CN(C(=S)Nc1ccccc1Cl)C1CC1)c1nnnn12`, the “hERG current change (%, negative = inhibition) at 1uM” value is recorded as -10.2%. `CC1CCN(c2nc3ccccc3n2CC(=O)c2ccccc2)CC1`: the “hERG current change (%, negative = inhibition) at 1uM” value stood at 19%. The value for `Cc1cccc(-c2noc(-c3cc4ccccc4oc3=O)n2)c1` was 4.34%.

For the molecule `COc1ccc(N2CC(C(=O)N[C@@H](CC(C)C)C(=O)NC3CCCC3)CC2=O)cc1` (some centres unmarked), the “hERG current change (%, negative = inhibition) at 1uM” value is given as 13.8%. As for `COC(=O)C1CCN(C(=O)N2CCOCC2)CC1`, the figure is 13.1%. For `COc1ccc(C(=O)Cn2nnc(-c3ccc(N4CCOCC4)cc3)n2)cc1OC`, the “hERG current change (%, negative = inhibition) at 1uM” value was 0.578%.

Regarding `COC(=O)c1ccc(C23CC4(C2)[C@H](CN(Cc2cccnc2)[C@@H]4c2ccccc2)C3c2ccc(C(F)(F)F)cc2)cc1` (some centres unmarked), the “hERG current change (%, negative = inhibition) at 1uM” value came to 13.6%.
